# Test results: the supplement of paper PMC8728848
# This is one part of the list.
# B1: F17-L (Escherichia coli) (protein)
# chain: GPDDYVPSQIAVNTSTLPGVVIGPADAHTYPRVIGELAGTSNQYVFNGGAIALMRGKFTPALPKIGSITYTFHQGNSRDSSDFDIYDIGVSGLGIIIGMAGYWPATPLVPINSSGIYIDPVGANTNPNTYNGATASFGARLFVAFVATGRLPNGYITIPTRQLGTILLEAKRTSLNNKGLTAPVMLNGGRIQVQSQTHHHHHH
# Columns and labels:
# Assay in all cases: glycan array binding signal (z-score within array); higher = stronger binding
# Settings in all cases: glycan notation: IUPAC condensed, linker removed
# [1] = molecular target: Gal(b1-4)GlcNAc(b1-3)Gal(b1-4)GlcNAc(b1-2)[Gal(b1-4)GlcNAc(b1-3)Gal(b1-4)GlcNAc(b1-6)]Man(a1-6)[Gal(b1-4)GlcNAc(b1-3)Gal(b1-4)GlcNAc(b1-2)Man(a1-3)]Man(b1-4)GlcNAc(b1-4)[Fuc(a1-6)]GlcNAc
# Summary of the method: (§1)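 From the Consortium for Functional Glycomics database, 3228 arrays were curated, keeping only those whose protein sequence was available. Binding is given as a within-array Z-score averaged across arrays sharing a protein sequence and across linkers. Negative Z-scores can be read as non-binding.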
# [2] = molecular target: Gal(b1-4)GlcNAc(b1-3)Gal(b1-4)GlcNAc(b1-3)Gal(b1-4)GlcNAc
# Summary of the method: as §1
# [3] = molecular target: Gal(b1-4)GlcNAc(b1-3)Gal(b1-4)GlcNAc(b1-3)Gal(b1-4)GlcNAc(b1-2)Man(a1-3)[Gal(b1-4)GlcNAc(b1-3)Gal(b1-4)GlcNAc(b1-3)Gal(b1-4)GlcNAc(b1-2)Man(a1-6)]Man(b1-4)GlcNAc(b1-4)GlcNAc
# Summary of the method: as §1
# [4] = molecular target: Gal(b1-4)GlcNAc(b1-3)Gal(b1-4)GlcNAc(b1-3)Gal(b1-4)GlcNAc(b1-2)Man(a1-3)[Gal(b1-4)GlcNAc(b1-3)Gal(b1-4)GlcNAc(b1-3)Gal(b1-4)GlcNAc(b1-2)Man(a1-6)]Man(b1-4)GlcNAc(b1-4)[Fuc(a1-6)]GlcNAc
# Summary of the method: as §1
# [5] = molecular target: Gal(b1-4)GlcNAc(b1-3)Gal(b1-4)GlcNAc(b1-3)Gal(b1-4)GlcNAc(b1-2)[Gal(b1-4)GlcNAc(b1-3)Gal(b1-4)GlcNAc(b1-3)Gal(b1-4)GlcNAc(b1-6)]Man(a1-6)[Gal(b1-4)GlcNAc(b1-3)Gal(b1-4)GlcNAc(b1-3)Gal(b1-4)GlcNAc(b1-2)Man(a1-3)]Man(b1-4)GlcNAc(b1-4)[Fuc(a1-6)]GlcNAc
# Summary of the method: as §1
# [6] = molecular target: Gal(b1-4)GlcNAc(b1-3)Gal(b1-4)GlcNAc(b1-3)Gal(b1-4)GlcNAc(b1-3)Gal(b1-4)GlcNAc(b1-2)Man(a1-3)[Gal(b1-4)GlcNAc(b1-3)Gal(b1-4)GlcNAc(b1-3)Gal(b1-4)GlcNAc(b1-3)Gal(b1-4)GlcNAc(b1-2)Man(a1-6)]Man(b1-4)GlcNAc(b1-4)GlcNAc
# Summary of the method: as §1
# [7] = molecular target: Gal(b1-4)GlcNAc(b1-3)Gal(b1-4)GlcNAc(b1-3)Gal(b1-4)GlcNAc(b1-3)Gal(b1-4)GlcNAc(b1-2)Man(a1-3)[Gal(b1-4)GlcNAc(b1-3)Gal(b1-4)GlcNAc(b1-3)Gal(b1-4)GlcNAc(b1-3)Gal(b1-4)GlcNAc(b1-2)Man(a1-6)]Man(b1-4)GlcNAc(b1-4)[Fuc(a1-6)]GlcNAc
# Summary of the method: as §1
# [8] = molecular target: Gal(b1-4)GlcNAc(b1-3)Gal(b1-4)GlcNAc(b1-3)Gal(b1-4)GlcNAc(b1-3)Gal(b1-4)GlcNAc(b1-2)[Gal(b1-4)GlcNAc(b1-3)Gal(b1-4)GlcNAc(b1-3)Gal(b1-4)GlcNAc(b1-3)Gal(b1-4)GlcNAc(b1-6)]Man(a1-6)[Gal(b1-4)GlcNAc(b1-3)Gal(b1-4)GlcNAc(b1-3)Gal(b1-4)GlcNAc(b1-3)Gal(b1-4)GlcNAc(b1-2)Man(a1-3)]Man(b1-4)GlcNAc(b1-4)[Fuc(a1-6)]GlcNAc
# Summary of the method: as §1
# [9] = molecular target: Gal(b1-4)GlcNAc(b1-3)Gal(b1-4)GlcNAc(b1-3)Gal(b1-4)GlcNAc(b1-3)Gal(b1-4)GlcNAc(b1-3)Gal(b1-4)GlcNAc(b1-2)Man(a1-3)[Gal(b1-4)GlcNAc(b1-3)Gal(b1-4)GlcNAc(b1-3)Gal(b1-4)GlcNAc(b1-3)Gal(b1-4)GlcNAc(b1-3)Gal(b1-4)GlcNAc(b1-2)Man(a1-6)]Man(b1-4)GlcNAc(b1-4)GlcNAc
# Summary of the method: as §1
# [10] = molecular target: Gal(b1-4)GlcNAc(b1-3)Gal(b1-4)GlcNAc(b1-3)Gal(b1-4)GlcNAc(b1-3)Gal(b1-4)GlcNAc(b1-3)Gal(b1-4)GlcNAc(b1-2)Man(a1-3)[Gal(b1-4)GlcNAc(b1-3)Gal(b1-4)GlcNAc(b1-3)Gal(b1-4)GlcNAc(b1-3)Gal(b1-4)GlcNAc(b1-3)Gal(b1-4)GlcNAc(b1-2)Man(a1-6)]Man(b1-4)GlcNAc(b1-4)[Fuc(a1-6)]GlcNAc
# Summary of the method: as §1
# [11] = molecular target: Gal(b1-4)GlcNAc(b1-3)Gal(b1-4)GlcNAc(b1-3)Gal(b1-4)GlcNAc(b1-3)Gal(b1-4)GlcNAc(b1-3)Gal(b1-4)GlcNAc(b1-2)[Gal(b1-4)GlcNAc(b1-3)Gal(b1-4)GlcNAc(b1-3)Gal(b1-4)GlcNAc(b1-3)Gal(b1-4)GlcNAc(b1-3)Gal(b1-4)GlcNAc(b1-6)]Man(a1-6)[Gal(b1-4)GlcNAc(b1-3)Gal(b1-4)GlcNAc(b1-3)Gal(b1-4)GlcNAc(b1-3)Gal(b1-4)GlcNAc(b1-3)Gal(b1-4)GlcNAc(b1-2)Man(a1-3)]Man(b1-4)GlcNAc(b1-4)[Fuc(a1-6)]GlcNAc
# Summary of the method: as §1
# [12] = molecular target: Gal(b1-4)GlcNAc(b1-3)Gal(b1-4)GlcNAc(b1-3)Gal(b1-4)GlcNAc(b1-3)Gal(b1-4)GlcNAc(b1-3)Gal(b1-4)GlcNAc(b1-3)Gal(b1-4)GlcNAc(b1-2)Man(a1-3)[Gal(b1-4)GlcNAc(b1-3)Gal(b1-4)GlcNAc(b1-3)Gal(b1-4)GlcNAc(b1-3)Gal(b1-4)GlcNAc(b1-3)Gal(b1-4)GlcNAc(b1-3)Gal(b1-4)GlcNAc(b1-2)Man(a1-6)]Man(b1-4)GlcNAc(b1-4)GlcNAc
# Summary of the method: as §1
# [13] = molecular target: Gal(b1-4)GlcNAc(b1-3)Gal(b1-4)GlcNAc(b1-3)GalNAc
# Summary of the method: as §1
# [14] = molecular target: Gal(b1-4)GlcNAc(b1-3)Gal(b1-4)GlcNAc(b1-3)[Gal(b1-4)GlcNAc(b1-3)Gal(b1-4)GlcNAc(b1-6)]GalNAc
# Summary of the method: as §1
# [15] = molecular target: Gal(b1-4)GlcNAc(b1-3)Gal(b1-4)GlcNAc(b1-6)[Gal(b1-3)]GalNAc
# Summary of the method: as §1
# [16] = molecular target: Gal(b1-4)GlcNAc(b1-3)Gal(b1-4)[Fuc(a1-3)]GlcNAc(b1-3)Gal(b1-4)[Fuc(a1-3)]GlcNAc
# Summary of the method: as §1
# [17] = molecular target: Gal(b1-4)GlcNAc(b1-3)GalNAc
# Summary of the method: as §1
# [18] = molecular target: Gal(b1-4)GlcNAc(b1-3)[Fuc(a1-3)GlcNAc(b1-6)]Gal(b1-4)Glc
# Summary of the method: as §1
# [19] = molecular target: Gal(b1-4)GlcNAc(b1-3)[Gal(b1-4)GlcNAc(b1-6)]Gal(b1-4)GlcNAc
# Summary of the method: as §1
# [20] = molecular target: Gal(b1-4)GlcNAc(b1-3)[GlcNAc(b1-6)]Gal(b1-4)GlcNAc
# Summary of the method: as §1
# [21] = molecular target: Gal(b1-4)GlcNAc(b1-6)Gal(b1-4)GlcNAc
# Summary of the method: as §1
# [22] = molecular target: Gal(b1-4)GlcNAc(b1-6)GalNAc
# Summary of the method: as §1
# [23] = molecular target: Gal(b1-4)GlcNAc(b1-6)[Gal(b1-3)]GalNAc
# Summary of the method: as §1
# [24] = molecular target: Gal(b1-4)GlcNAc(b1-6)[Gal(b1-4)GlcNAc(b1-3)]GalNAc
# Summary of the method: as §1
# Gal(b1-4)GlcNAc6P = molecular target: Gal(b1-4)GlcNAc6P
# Summary of the method: as §1
# Gal(b1-6)Gal = molecular target: Gal(b1-6)Gal
# Summary of the method: as §1
# Gal3S(b1-3)GalNAc = molecular target: Gal3S(b1-3)GalNAc
# Summary of the method: as §1
# Gal3S(b1-3)GlcNAc = molecular target: Gal3S(b1-3)GlcNAc
# Summary of the method: as §1
# [25] = molecular target: Gal3S(b1-3)[Fuc(a1-4)]GlcNAc
# Summary of the method: as §1
# Gal3S(b1-4)Glc = molecular target: Gal3S(b1-4)Glc
# Summary of the method: as §1
# Gal3S(b1-4)Glc6S = molecular target: Gal3S(b1-4)Glc6S
# Summary of the method: as §1
# Gal3S(b1-4)GlcNAc = molecular target: Gal3S(b1-4)GlcNAc
# Summary of the method: as §1
# [26] = molecular target: Gal3S(b1-4)[Fuc(a1-3)]Glc6S
# Summary of the method: as §1
# [27] = molecular target: Gal3S(b1-4)[Fuc(a1-3)]GlcNAc
# Summary of the method: as §1
# [28] = molecular target: Gal3S(b1-4)[Fuc(a1-3)]GlcNAc6S
# Summary of the method: as §1
# Gal3S4S(b1-4)GlcNAc = molecular target: Gal3S4S(b1-4)GlcNAc
# Summary of the method: as §1
# Gal3S6S(b1-4)GlcNAc = molecular target: Gal3S6S(b1-4)GlcNAc
# Summary of the method: as §1
# Gal3S6S(b1-4)GlcNAc6S = molecular target: Gal3S6S(b1-4)GlcNAc6S
# Summary of the method: as §1
# Gal4S(b1-4)GlcNAc = molecular target: Gal4S(b1-4)GlcNAc
# Summary of the method: as §1
# Gal4S6S(b1-4)GlcNAc = molecular target: Gal4S6S(b1-4)GlcNAc
# Summary of the method: as §1
# Gal6P(b1-4)GlcNAc = molecular target: Gal6P(b1-4)GlcNAc
# Summary of the method: as §1
# Gal6S(b1-3)GlcNAc = molecular target: Gal6S(b1-3)GlcNAc
# Summary of the method: as §1
# Gal6S(b1-3)GlcNAc6S = molecular target: Gal6S(b1-3)GlcNAc6S
# Summary of the method: as §1
# Gal6S(b1-4)Glc = molecular target: Gal6S(b1-4)Glc
# Summary of the method: as §1
# Gal6S(b1-4)Glc6S = molecular target: Gal6S(b1-4)Glc6S
# Summary of the method: as §1
binder,measurement,setting,value
B1,glycan array binding signal (z-score),[1],-0.077
same,glycan array binding signal (z-score),[2],-0.087
same,glycan array binding signal (z-score),[3],-0.059
same,glycan array binding signal (z-score),[4],0.05
same,glycan array binding signal (z-score),[5],-0.173
same,glycan array binding signal (z-score),[6],-0.146
same,glycan array binding signal (z-score),[7],-0.057
same,glycan array binding signal (z-score),[8],-0.147
same,glycan array binding signal (z-score),[9],-0.093
same,glycan array binding signal (z-score),[10],-0.099
same,glycan array binding signal (z-score),[11],0.013
same,glycan array binding signal (z-score),[12],-0.152
same,glycan array binding signal (z-score),[13],-0.141
same,glycan array binding signal (z-score),[14],-0.06
same,glycan array binding signal (z-score),[15],-0.113
same,glycan array binding signal (z-score),[16],0.011
same,glycan array binding signal (z-score),[17],-0.12
same,glycan array binding signal (z-score),[18],-0.166
same,glycan array binding signal (z-score),[19],0.019
same,glycan array binding signal (z-score),[20],-0.132
same,glycan array binding signal (z-score),[21],-0.156
same,glycan array binding signal (z-score),[22],-0.078
same,glycan array binding signal (z-score),[23],-0.095
same,glycan array binding signal (z-score),[24],-0.158
same,glycan array binding signal (z-score),Gal(b1-4)GlcNAc6P,-0.084
same,glycan array binding signal (z-score),Gal(b1-6)Gal,-0.146
same,glycan array binding signal (z-score),Gal3S(b1-3)GalNAc,-0.028
same,glycan array binding signal (z-score),Gal3S(b1-3)GlcNAc,-0.094
same,glycan array binding signal (z-score),[25],-0.036
same,glycan array binding signal (z-score),Gal3S(b1-4)Glc,-0.156
same,glycan array binding signal (z-score),Gal3S(b1-4)Glc6S,-0.109
same,glycan array binding signal (z-score),Gal3S(b1-4)GlcNAc,-0.128
same,glycan array binding signal (z-score),[26],0.13
same,glycan array binding signal (z-score),[27],-0.048
same,glycan array binding signal (z-score),[28],-0.061
same,glycan array binding signal (z-score),Gal3S4S(b1-4)GlcNAc,-0.039
same,glycan array binding signal (z-score),Gal3S6S(b1-4)GlcNAc,-0.107
same,glycan array binding signal (z-score),Gal3S6S(b1-4)GlcNAc6S,0.102
same,glycan array binding signal (z-score),Gal4S(b1-4)GlcNAc,-0.113
same,glycan array binding signal (z-score),Gal4S6S(b1-4)GlcNAc,-0.103
same,glycan array binding signal (z-score),Gal6P(b1-4)GlcNAc,-0.111
same,glycan array binding signal (z-score),Gal6S(b1-3)GlcNAc,-0.116
same,glycan array binding signal (z-score),Gal6S(b1-3)GlcNAc6S,-0.114
same,glycan array binding signal (z-score),Gal6S(b1-4)Glc,-0.07
same,glycan array binding signal (z-score),Gal6S(b1-4)Glc6S,-0.033
